Reference: PubChem BioAssay AID1460 (National Center for Advancing Translational Sciences (NCATS), 2008)
The whole screen tested about 270,000 compounds, of which about 5,800 (2.1%) were called active. This list was built around the results that the source calls inconclusive (neither active nor inactive); the mix of calls is not that of the screen. Calls come from the whole dose curve; as a rule, active = well fitted inhibition curve with a large enough effect; inconclusive = small, poorly fitted or top-dose-only effect; inactive = flat fitted curve, though single readings scatter. A potency beside an inconclusive call is a rough fit, not a confirmed value.
% is set by controls: 0 for no effect and ±100 for the full control effect; potency is the fitted concentration of half-maximal effect; tags give direction and shape of the fitted curve.
Note: nearly all actives have a fitted effect of over 55% in size.

These molecules were tested against Microtubule-associated protein tau (Homo sapiens) (UniProt P10636) (assay: qHTS for Inhibitors of Tau Fibril Formation, Thioflavin T Binding). Conditions: recombinant tau K18 P301L (four-repeat tau fragment), heparin-induced fibrillization, ThT fluorescence; series mostly up to 57.4 µM; activity, negative = inhibition: at the top concentration.
UniProt P10636, sequence (P10636 whole entry, looked up, the tested form may be a part): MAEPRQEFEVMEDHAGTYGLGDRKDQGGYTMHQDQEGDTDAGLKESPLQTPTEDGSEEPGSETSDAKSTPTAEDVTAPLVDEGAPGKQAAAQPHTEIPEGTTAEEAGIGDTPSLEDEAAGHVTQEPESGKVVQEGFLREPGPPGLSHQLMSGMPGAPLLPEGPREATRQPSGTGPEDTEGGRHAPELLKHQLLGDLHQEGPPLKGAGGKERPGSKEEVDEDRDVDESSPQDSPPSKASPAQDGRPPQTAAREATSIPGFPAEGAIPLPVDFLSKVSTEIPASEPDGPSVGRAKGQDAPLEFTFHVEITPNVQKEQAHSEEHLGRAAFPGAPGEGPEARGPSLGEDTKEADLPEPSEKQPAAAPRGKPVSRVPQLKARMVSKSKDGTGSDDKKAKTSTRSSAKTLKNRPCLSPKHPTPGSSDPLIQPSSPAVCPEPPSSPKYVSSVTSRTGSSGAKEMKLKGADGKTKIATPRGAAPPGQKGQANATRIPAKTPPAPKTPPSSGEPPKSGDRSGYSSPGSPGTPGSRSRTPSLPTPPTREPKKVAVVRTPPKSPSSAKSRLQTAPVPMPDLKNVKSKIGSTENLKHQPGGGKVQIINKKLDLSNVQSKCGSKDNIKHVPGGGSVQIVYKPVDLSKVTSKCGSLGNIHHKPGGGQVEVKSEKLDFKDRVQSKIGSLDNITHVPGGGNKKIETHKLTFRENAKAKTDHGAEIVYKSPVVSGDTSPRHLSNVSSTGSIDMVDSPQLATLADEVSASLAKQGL
Procedure, shortened: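 Tau K18 P301L fragment (15 uM unlabeled plus 0.24 uM Alexa 594-labeled) in 100 mM sodium acetate pH 7 with compound, fibrillization induced by 20 uM heparin for 6 hr at 37 C. Thioflavin T (30 uM) added, fluorescence read after 1 hr (ex 450, em 510 nm).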
`Cc1ccc(NC(=O)CN2C(=O)S/C(=C/c3ccc(O)c([N+](=O)[O-])c3)C2=O)cc1C` was tested, and the Potency was active: 7.94 µM. In the case of `COc1ccc(CCNC(=O)C2(c3cccs3)CCOCC2)cc1OC`, the “activity, negative = inhibition” value is reported as inactive: -4.83%. With `CC(=O)Cc1nsc(Nc2ccc3c(c2)OCCO3)n1` the Potency was inconclusive: 4.47 µM [inhibitor, full curve]. In the case of `COc1ccc(NC(=O)CSc2[nH]c(=O)cc(C)c2C#N)cc1OC`, the Potency is reported as inconclusive: 39.8 µM [inhibitor, single point]. With `O=C(Nc1ccc(Cl)cc1F)c1ccc(COc2c(F)c(F)c(F)c(F)c2F)o1` the Potency was inconclusive: 28.2 µM [inhibitor, partial curve, poor fit]. With `CN(C)c1ccc(C(CNC(=O)c2ccc(C(C)(C)C)cc2)N2CCOCC2)cc1` (configuration not stated) the Potency was inconclusive: 17.8 µM [inhibitor, partial curve]. For `CCC1c2ccc(C)n2CCN1C(=O)Nc1ccc(F)cc1` (configuration not stated), the Potency was inconclusive: 25.1 µM [inhibitor, partial curve]. In the case of `O=C(CCNc1n[nH]c(=O)[nH]c1=O)N1CCCCC1`, the “activity, negative = inhibition” value is reported as inactive: 9.79%. For `COc1ccccc1N1CCN(c2ncnc3c2oc2ccccc23)CC1`, the Potency was inconclusive: 14.1 µM [inhibitor, partial curve]. For `COc1ccc(N2CCN(C(=O)c3ccc(N(C)S(=O)(=O)c4ccc(OC)cc4)cc3)CC2)cc1`, the Potency was inconclusive: 28.2 µM [inhibitor, partial curve, poor fit]. `COc1cccc(N2CCN(c3ccc(S(=O)(=O)N4CCCC4)cc3)CC2)c1` was tested, and the Potency was inconclusive: 25.1 µM [inhibitor, partial curve]. For `O=C(NCc1ccco1)c1cc2c(s1)CCCCC2`, the Potency was inconclusive: 25.1 µM [inhibitor, partial curve]. `CCOc1cc2[nH]c(=O)n(CCCCC(=O)N3CCCCCC3)c(=O)c2cc1OCC` was tested, and the “activity, negative = inhibition” value was inactive: 3.88%. For `CC1CCCN(c2ccc(/C=C(\C#N)c3nn(-c4ccccc4)c(N)c3C#N)cc2[N+](=O)[O-])C1` (configuration not stated), the Potency was active: 14.1 µM. With `COc1cc2c(=O)n(Cc3ccccc3)c(=O)n(CC(=O)C(C)(C)C)c2cc1OC` the “activity, negative = inhibition” value was inactive: -4.46%. For `CN(C)c1ccc(C(=O)/C=C/c2ccccc2)cc1`, the Potency was inconclusive: 3.55 µM [inhibitor, partial curve]. `C/C(=N/NC(=O)c1cccs1)c1cccc(NC(=O)C2CC2)c1` was tested, and the Potency was inconclusive: 25.1 µM [inhibitor, partial curve]. With `CCOC(=O)c1cc2occc2n1CC(=O)Nc1ccc(OC)cc1OC` the Potency was inconclusive: 3.55 µM [inhibitor, partial curve]. With `COc1ccccc1N1CCN(S(=O)(=O)c2ccc3c4c(cccc24)C(=O)N3C)CC1` the “activity, negative = inhibition” value was inactive: -2.34%. In the case of `CN(C)c1ccc(C(CNS(=O)(=O)c2ccccc2)N2CCc3ccccc32)cc1` (configuration not stated), the Potency is reported as inconclusive: 11.2 µM [inhibitor, partial curve, poor fit]. In the case of `Cc1cc(NC(=O)CSc2nnc(-c3cccnc3)n2N)no1`, the Potency is reported as inconclusive: 15.8 µM [inhibitor, partial curve]. With `COc1cc(C(=O)NCC(c2cccnc2)N2CCc3ccccc32)cc(OC)c1OC` (configuration not stated) the “activity, negative = inhibition” value was inactive: -3.17%. In the case of `CCN1CCN(c2cc(C)c3cc(NC(=S)N4CCOCC4)ccc3n2)CC1`, the Potency is reported as inconclusive: 15.8 µM [inhibitor, partial curve]. In the case of `O=c1cc(N2CCN(c3ccc(F)cc3)CC2)[nH]c(=O)n1-c1ccc(Br)cc1`, the Potency is reported as inconclusive: 6.31 µM [inhibitor, full curve, poor fit]. With `O=C(O)CC(NCc1ccco1)C(=O)OCCCl` (configuration not stated) the “activity, negative = inhibition” value was inactive: -4.05%. `Fc1ccc(NCc2nnc(SCc3ccccc3)o2)cc1` was tested, and the Potency was inconclusive: 15.8 µM [inhibitor, partial curve, poor fit]. In the case of `Cc1cc(-c2n[nH]c(=S)n2/N=C/c2sccc2C)n[nH]1`, the “activity, negative = inhibition” value is reported as inactive: -15.4%. For `COc1ccc(OC)c(NC(=O)CSC2=Nc3ccccc3C3=NC(CC(=O)NCc4ccc5c(c4)OCO5)C(=O)N23)c1` (configuration not stated), the Potency was inconclusive: 20 µM [inhibitor, single point]. With `CCN(CC)C(=S)Oc1c(Cl)cccc1Cl` the “activity, negative = inhibition” value was inactive: -3.35%. With `COc1ccccc1N=Cc1c(C)c(C#N)c2[nH]c3ccccc3n2c1=O` the Potency was inconclusive: 15.8 µM [inhibitor, partial curve]. With `CCCCCCCCCCCCN1C(=O)CSC1c1cccnc1` (configuration not stated) the Potency was inconclusive: 28.2 µM [inhibitor, single point]. `COCCCNc1nc(N)c([N+](=O)[O-])c(Nc2cc(OC)ccc2OC)n1` was tested, and the Potency was inconclusive: 8.91 µM [inhibitor, partial curve]. For `O=C(O)c1cc(-c2ccc(/C=N/Nc3ccc(Cl)cc3)o2)ccc1Cl`, the Potency was active: 8.91 µM. For `O=C(COc1ccccc1)OCc1csc(Nc2ccccc2)n1`, the Potency was inconclusive: 15.8 µM [inhibitor, single point]. In the case of `CCOC(=O)N1CCN(C(=O)CSCC(=O)Nc2nc(-c3ccc(-c4ccccc4)cc3)cs2)CC1`, the Potency is reported as inconclusive: 2.51 µM [inhibitor, partial curve, poor fit]. In the case of `CC#CCN1c2ccccc2[C@]23C[C@@H](C(=O)OC)N(S(=O)(=O)c4ccc(OC)cc4)C2=NC(C(=O)OC)=C(C(=O)OC)[C@H]13`, the activity, negative = inhibition is reported as inactive: -12.3% [at 11.5 µM]. `COc1cccc2cc(-c3ccnc(=S)[nH]3)oc12` was tested, and the Potency was active: 28.2 µM. In the case of `Cc1ccc([N+](=O)[O-])c(OCCCN2CCCCCC2)c1`, the “activity, negative = inhibition” value is reported as inactive: -4.6%. `COc1ccc(CN2CCN(S(=O)(=O)c3ccc(NC(C)=O)cc3)CC2)cc1` was tested, and the “activity, negative = inhibition” value was inactive: 0.0205%. With `Cc1cc(C)cc(Nc2ccc([N+](=O)[O-])nc2[N+](=O)[O-])c1` the Potency was inconclusive: 28.2 µM [inhibitor, single point]. In the case of `CC(C)(C)NC(=O)NC(=O)CN1CCN(c2ccc(O)cc2)CC1`, the Potency is reported as inconclusive: 22.4 µM [inhibitor, single point]. In the case of `CCc1cc2c(=O)n(Cc3ccco3)c(SCc3c(C)noc3C)nc2s1`, the Potency is reported as inconclusive: 12.6 µM [inhibitor, partial curve, poor fit]. For `CCn1c(C2CCN(S(=O)(=O)c3ccc(OC)cc3)CC2)n[nH]c1=S`, the “activity, negative = inhibition” value was inactive: -0.465%. For `CCOC(=O)c1c(C)oc2ccc(NS(=O)(=O)c3ccc4c5c(cccc35)C(=O)N4)cc12`, the Potency was inconclusive: 28.2 µM [inhibitor, single point]. In the case of `COc1cc2c(cc1NC(=O)CSc1nnc(Cc3cccs3)n1Cc1ccco1)oc1ccccc12`, the Potency is reported as inconclusive: 10 µM [inhibitor, partial curve]. With `COc1ccc2c(c1)-c1nc(/N=C/c3c(O)ccc4ccccc34)sc1CC2` the Potency was active: 22.4 µM. `CCc1ccc(C2c3[nH]c4ccccc4c3CCN2C(=O)c2ccc(=O)n(C)n2)cc1` (configuration not stated) was tested, and the Potency was inconclusive: 31.6 µM [inhibitor, partial curve]. In the case of `Cc1ccccc1NC(=O)Cn1nc(-c2ccc(F)cc2)c2cnc3ccccc3c21`, the “activity, negative = inhibition” value is reported as inactive: -15.6%. In the case of `COc1ccc(NC(=O)c2ccc(NCCN3C(=O)CCC3=O)c([N+](=O)[O-])c2)cc1`, the Potency is reported as inconclusive: 25.1 µM [inhibitor, partial curve]. `N#C/C(=C/c1ccc(Br)o1)C(N)=S` was tested, and the Potency was active: 17.8 µM. In the case of `Cc1ccsc1/C=N/NC(=O)c1cc(-c2ccncc2)nc2ccccc12`, the Potency is reported as inconclusive: 15.8 µM [inhibitor, partial curve, poor fit]. For `Cc1ccc(-n2c(SCC(=O)Nc3cccc(Cl)c3)nc3n[nH]c(C)c3c2=N)cc1`, the “activity, negative = inhibition” value was inactive: 7.76%. `COc1ccc([N+](=O)[O-])cc1NCc1ccccc1C` was tested, and the Potency was inconclusive: 17.8 µM [inhibitor, single point]. In the case of `Oc1ccccc1N=Cc1c(O)ccc2oc3c(c12)CCCC3`, the Potency is reported as inconclusive: 17.8 µM [inhibitor, partial curve]. With `C/C(=N\Nc1nc2ccccc2[nH]1)c1ccc(C)o1` the Potency was inconclusive: 22.4 µM [inhibitor, partial curve]. For `O=C(CN1CCN(c2ncc(C(F)(F)F)cc2Cl)CC1)NCCNc1ncc(C(F)(F)F)cc1Cl`, the Potency was inconclusive: 17.8 µM [inhibitor, single point]. For `COc1ccc(CCNC(=O)C2CC(c3ccc([N+](=O)[O-])cc3)=NO2)cc1` (configuration not stated), the Potency was inconclusive: 10 µM [inhibitor, partial curve, poor fit]. In the case of `Cc1cc(NC(=O)c2cc(C)on2)no1`, the Potency is reported as inconclusive: 44.7 µM [inhibitor, single point]. For `CCOc1ccc(/C(O)=C2/C(=O)C(=O)N(c3nc(C)c(C)s3)C2c2ccco2)cc1` (configuration not stated), the Potency was inconclusive: 7.08 µM [inhibitor, partial curve]. In the case of `COc1ccc(N2CCN(C(=O)c3nc(-c4ccc(Cl)cc4)n4c3CCCCC4)CC2)cc1`, the Potency is reported as inconclusive: 7.94 µM [inhibitor, full curve, poor fit]. `CCOc1ccc(Br)cc1CNc1ccc2c(c1)OCCO2` was tested, and the Potency was inconclusive: 39.8 µM [inhibitor, single point]. For `CC(=O)CCC(=O)OCC(=O)c1ccc(C(F)(F)F)cc1`, the Potency was inconclusive: 7.94 µM [inhibitor, single point]. For `COc1ccc(Cn2ccc3nc(C)c(C(=O)Nc4ccc(C)c(F)c4)cc3c2=O)cc1`, the “activity, negative = inhibition” value was inactive: -2.05%. In the case of `Cc1cc(C)[n+]2[nH]c(N)c(N=Nc3ccccc3)c2n1`, the Potency is reported as active: 15.8 µM. `O=C(N/N=C/c1ccc(-c2ccccc2)o1)c1ccccc1O` was tested, and the Potency was inconclusive: 3.98 µM [inhibitor, partial curve]. In the case of `O=S(=O)(CCN1CCCCC1)Oc1ccc(Cl)cc1Cl`, the Potency is reported as inconclusive: 0.141 µM [inhibitor, full curve, poor fit]. With `Cc1sc(N/N=C/c2cccs2)nc1-c1ccccc1` the Potency was inconclusive: 5.62 µM [inhibitor, partial curve].
